Among all 310,000 compounds or so, about 2,200 (0.71%) showed an effect of 50% or more. The effect is printed as a negative number. The list shows a part of the results.
These compounds were tested against human ether-à-go-go-related gene (hERG) potassium channel (human, UniProt Q12809) (assay: primary screen, population patch clamp on CHO cells stably expressing hERG).
Chain of human ether-à-go-go-related gene (hERG) potassium channel (Q12809 whole entry, looked up): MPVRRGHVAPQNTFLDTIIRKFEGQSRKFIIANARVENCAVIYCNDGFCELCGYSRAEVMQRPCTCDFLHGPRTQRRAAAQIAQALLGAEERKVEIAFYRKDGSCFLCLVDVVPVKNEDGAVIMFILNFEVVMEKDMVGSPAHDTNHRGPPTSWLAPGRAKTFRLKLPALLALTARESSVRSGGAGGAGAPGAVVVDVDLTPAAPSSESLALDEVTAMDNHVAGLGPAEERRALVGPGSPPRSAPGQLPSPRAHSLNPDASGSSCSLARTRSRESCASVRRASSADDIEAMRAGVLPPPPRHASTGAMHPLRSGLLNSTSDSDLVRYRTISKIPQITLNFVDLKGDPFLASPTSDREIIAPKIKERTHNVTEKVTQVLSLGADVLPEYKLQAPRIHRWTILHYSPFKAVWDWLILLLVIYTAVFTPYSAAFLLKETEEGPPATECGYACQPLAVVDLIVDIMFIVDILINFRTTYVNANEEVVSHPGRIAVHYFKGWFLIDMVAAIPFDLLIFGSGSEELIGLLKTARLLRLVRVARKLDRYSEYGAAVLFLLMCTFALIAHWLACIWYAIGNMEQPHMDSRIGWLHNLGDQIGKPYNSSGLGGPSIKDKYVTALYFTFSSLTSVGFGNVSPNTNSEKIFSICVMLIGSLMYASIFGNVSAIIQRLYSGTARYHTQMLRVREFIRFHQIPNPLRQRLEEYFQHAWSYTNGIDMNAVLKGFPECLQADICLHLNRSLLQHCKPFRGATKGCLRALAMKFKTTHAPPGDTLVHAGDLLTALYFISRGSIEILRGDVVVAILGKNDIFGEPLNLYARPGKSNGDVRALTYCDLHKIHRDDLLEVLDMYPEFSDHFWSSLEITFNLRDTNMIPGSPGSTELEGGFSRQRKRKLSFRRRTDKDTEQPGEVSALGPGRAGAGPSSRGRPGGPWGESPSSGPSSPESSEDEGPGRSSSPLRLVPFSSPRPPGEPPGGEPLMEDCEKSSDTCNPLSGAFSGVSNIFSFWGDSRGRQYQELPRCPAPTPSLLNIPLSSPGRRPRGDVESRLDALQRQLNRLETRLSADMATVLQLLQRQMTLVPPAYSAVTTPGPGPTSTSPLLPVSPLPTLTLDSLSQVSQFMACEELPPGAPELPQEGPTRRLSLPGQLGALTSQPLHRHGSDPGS

Row | SMILES | hERG current change (%, negative = inhibition) at 1uM [%]
1 | CCOC(=O)c1[nH]c(C)c(C(=O)OCc2ccccc2F)c1C | 15.8
2 | COc1ccc(NS(=O)(=O)c2cccc(C(=O)NNC(=O)c3cc(C)oc3C)c2)cc1 | 10.5
3 | O=C(CSc1nc2c(c(=O)n1-c1ccc(F)cc1)SCC2)NCc1ccco1 | -4.48
4 | CC(=O)c1ccc(NC(=O)[C@@H]2CCCN2C(=O)OC(C)(C)C)cc1 | 16.5
5 | O=S(=O)(NCC1(N2CCOCC2)CCCCC1)c1ccc(F)cc1 | 8.51
6 | Cn1c(N)c(C(=O)COC(=O)CC(NC(=O)c2ccccc2Cl)c2ccccc2)c(=O)n(C)c1=O (centres unmarked) | 4.4
7 | Cc1ccc(NC(=O)CSc2ccc(Br)cc2)cc1S(=O)(=O)N1CCOCC1 | -11
8 | COCCn1c(SCC(=O)Nc2ccc(F)cc2F)nc2c([nH]c3ccccc32)c1=O | 14.8
9 | Cl.OC(COCc1ccc2c(c1)OCO2)CN1CCCCC1 (centres unmarked) | 4.84
10 | Cc1cc(NC(=O)CCN2CCN(Cc3ccccc3)CC2)ccc1Br.Cl | 7.35
11 | CCN(CC)S(=O)(=O)c1cccc(C(=O)N/N=C(\C)c2cccs2)c1 | 4.46
12 | COC(=O)c1ccc(C(=O)OC)c(NC(=S)N2CCN(C)CC2)c1 | 9.76
13 | O=C(CC1C(=O)NCCN1Cc1cccc(Oc2ccccc2)c1)NCc1cccnc1 (centres unmarked) | 8.42
14 | O=C1CC(N2CCN(C/C=C/c3ccccc3)CC2)C(=O)N1Cc1cccs1 (centres unmarked) | -50.8
15 | CCCCn1c(O)c(/C=C2\C=NN=C2c2ccccc2)sc1=S | 5.4
16 | CN(C)S(=O)(=O)c1ccc(NC(=O)CSc2nnnn2C)cc1 | 13.4
17 | Cc1cccc(OCC(=O)NC2CCCc3ccccc32)c1C (centres unmarked) | 14.5
18 | COC(=O)c1cc(OC)c(OC)cc1NC(=O)C(C)Sc1ccc(C)cc1 (centres unmarked) | 11.8
19 | CCn1nc(NC(=O)C2CCCO2)c2cc3cccc(C)c3nc21 (centres unmarked) | 15.1
20 | COc1cccc(NC(=O)C2CC(=O)N/C(=N/NC(=O)c3ccc(C)cc3)S2)c1 (centres unmarked) | 9.06
21 | CCc1c(C)nc2c(C#N)c(C)[nH]n2c1=O | 7.3
22 | O=C(c1ccccc1)N1CCN(c2ccc(Cl)cc2)CC1 | 9.15

Row | SMILES | hERG current change (%, negative = inhibition) at 1uM [%]
23 | Cc1ccc2[nH]c(=O)c(CN(CC3CCCO3)S(=O)(=O)c3cccc4nsnc34)cc2c1 (centres unmarked) | 3.89
24 | Cc1cc(NCCO)c2ccccc2n1.Cl | 22.9
25 | Cc1cccc(C(=O)OC(C)C(=O)Nc2ccc(S(=O)(=O)N3CCCC3)cc2)c1O (centres unmarked) | 23.3
26 | CSCC[C@H](NC(=O)Nc1ccc(OC(F)(F)F)cc1)C(=O)O | 6.63
27 | COc1ccc(C)cc1NC(=O)Nc1ccc2c(c1)CCC2 | 6.25
28 | Cc1cccc(C)c1NC(=O)CSc1nnc([C@H](C)NC(=O)OC(C)(C)C)o1 | -7.86
29 | Cc1ccc(NC(=O)c2cccnc2)cc1S(=O)(=O)N1CCOCC1 | 7.09
30 | CCC(C(=O)O/N=C(\N)c1ccccc1)c1ccccc1 (centres unmarked) | 10.5
31 | CC(C)Nc1ccc(Cl)cc1[N+](=O)[O-] | 11.1
32 | O=C(N/N=C/c1ccc2c(c1)OCO2)c1ccc2ccccc2n1 | 10.1
33 | Cc1ccc(NC(=O)C2CCCN(c3nccc(C)n3)C2)c(C)c1 (centres unmarked) | 14.9
34 | N#Cc1ccc(-n2nnc3ccccc3c2=O)c([N+](=O)[O-])c1 | 14.3
35 | S=C(NCCc1ccccc1)NCc1cccc(Cl)c1 | 10.1
36 | COc1cccc(NS(=O)(=O)NC(=O)c2cn(C)c3ccccc23)c1 | 9.87
37 | CC(=O)NN1C(=O)c2ccc(Oc3ccc4c(c3)C(=O)N(NC(C)=O)C4=O)cc2C1=O | 10.7
38 | CC1CC(C)CN(CC(=O)c2c[nH]c3ccccc23)C1 (centres unmarked) | 12.3
39 | CC(C)COC(=O)c1nnsc1NC(=O)Nc1ccccc1 | 14.2
40 | Cc1ccnc(NS(=O)(=O)c2ccc(Oc3ccccc3)cc2)c1 | 15.9
41 | Cn1c(=O)[nH]c(=O)c2c1nc(Br)n2Cc1ccccc1Cl | 3.38
42 | CN(Cc1cccc(-n2cccn2)c1)Cc1cn(C)nc1-c1ccccc1F | 16.7
43 | CCOC(=O)CCN(Cc1ccccc1)S(=O)(=O)c1csc(C(N)=O)c1 | 1.73
44 | CN(C)c1cc(-c2ccc(Br)cc2)oc(=O)c1Cl | 11.8

Row | SMILES | hERG current change (%, negative = inhibition) at 1uM [%]
45 | COc1ccc(N2CCN(C(=O)c3oc4ccccc4c3C)CC2)cc1 | 6.94
46 | O=C(NCCO)c1nc2ccccc2s1 | 8.81
47 | Clc1cccc(-c2cc3nc4c(c(N5CCOCC5)n3n2)CCCC4)c1 | 5.26
48 | CNC(=O)c1nnc(Cc2ccc(F)cc2)o1 | 12
49 | Cc1nnc(SCc2nc3ccccc3c(=O)n2-c2ccccc2Cl)n1N | -13.7
50 | CC(=O)NN1C(=O)/C(=C\c2ccc(Br)o2)SC1=S | 6.46
51 | NC(=O)c1ccc(N2CCC(C(N)=O)CC2)c([N+](=O)[O-])c1 | 10.6
52 | CC(C)c1ccc(C(C(=O)NC(C)(C)C)N(C(=O)CNC(=O)c2ccco2)c2cccnc2)cc1 (centres unmarked) | 13.3
53 | O=C(COC(=O)c1ccccc1)NC1CCCC1 | 2.05
54 | COc1ccc(-c2noc(-c3ccoc3C)n2)cc1OC | 9.22
55 | Cc1ccc(NC(=O)CCN2CCN(CCO)CC2)cc1Br.Cl | 1.45
56 | CC(=O)N1CCOc2ccc(S(=O)(=O)N3CCC(C)CC3)cc21 | 18.5
57 | COc1ccc(C2C(C#N)=C(N)N3C(=C2C#N)Sc2ccccc23)cc1 (centres unmarked) | 13.7
58 | CCOC(=O)C1=C(N)Oc2cc(O)ccc2C1c1cccc(Cl)c1 (centres unmarked) | 0.55
59 | COc1cccc(C(=O)NC2CC3CCC(C2)N3Cc2ccccc2)c1 (centres unmarked) | -2.53
60 | Cc1nc2ccccc2c(=O)n1NC(=O)c1cccc([N+](=O)[O-])c1 | 8.06
61 | COc1cccc(NC(=O)CC2S/C(=N\S(=O)(=O)c3ccccc3)N(c3ccccc3)C2=O)c1 (centres unmarked) | 10.5
62 | CCN(CC)C(=O)CSc1nnc(-c2ccccc2)n1N | 13.6
63 | COc1ccccc1Nc1nc(N)nc(CSC(=S)N2CCC(C)CC2)n1 | -1.81
64 | CCOc1ccccc1CN1CCC(n2nccc2NC(=O)CCCc2ccccc2)CC1 | -29.2
65 | CC1CC(C)CN(S(=O)(=O)c2ccc(NC(=O)CCN3C(=O)C4CC=CCC4C3=O)cc2)C1 (centres unmarked) | 7.34
66 | CC1=CC(C)(C)N(C(=O)CSc2nnc(C)s2)c2ccc(C)cc21 | 6.8

Row | SMILES | hERG current change (%, negative = inhibition) at 1uM [%]
67 | Cn1c(=O)c2c(nc(CN3CCc4ccccc4C3)n2Cc2ccc(Cl)cc2)n(C)c1=O | 15.8
68 | CC(=O)Oc1ccc2cc(-c3nc4ccccc4n3C)c(=O)oc2c1 | 6.36
69 | c1ccc(-c2nc(NC3CCCC3)c3ccccc3n2)cc1 | 18.4
70 | NC(=O)NC(CC(=O)NNC(=O)c1ccccn1)c1ccc(Cl)cc1 (centres unmarked) | 6.88
71 | O=C(NN1C(=O)C2C3CCC(O3)C2C1=O)c1ccc(Cl)cc1 (centres unmarked) | 8.32
72 | O=C(Nc1cc(Cl)ccc1N1CCOCC1)c1ccc(N2CCCCC2)c([N+](=O)[O-])c1 | 2.3
73 | COc1ccccc1NC(=O)CCCCC(=O)Nc1ccccc1OC | 12.8
74 | O=c1[nH]c2ccccc2cc1CN(Cc1ccco1)S(=O)(=O)c1ccc(F)cc1 | 11.1
75 | COC(=O)C1=C(c2ccc(S(C)(=O)=O)cc2)C[C@@H]2CC[C@H]1N2C(=O)NC(C)C | -24
76 | COc1ccc(NC(=O)C2CCN(Cc3cnn(-c4ccccc4)c3-n3cccc3)CC2)cc1OC | 12.7
77 | Cc1oc(-c2ccccc2)nc1Cn1cccc1C1=NC(c2ccccc2)CO1 (centres unmarked) | 11.3
78 | COc1ccc(CCN=C(N)NS(=O)(=O)c2ccccc2)cc1 | 13.7
79 | CC1CCN(C(=O)CCC(=O)Nc2nnc(C(F)(F)F)s2)CC1 | 17.4
80 | O=C(N/C(=C/c1cccc([N+](=O)[O-])c1)C(=O)N1CCOCC1)c1ccccc1Br | -3.03
81 | N=c1c(C(=O)NCc2ccccc2)cc2c(=O)n3ccccc3nc2n1CCCN1CCOCC1 | -80.7
82 | COc1ccc(/C=N/n2c(SC)nnc(C(C)(C)C)c2=O)c(OC)c1 | 10.2
83 | COc1ccc(C(=O)C(C)OC(=O)CCN2C(=O)C3CC=CCC3C2=O)cc1 (centres unmarked) | 6.39
84 | O=C(CSc1nnc(CNC(=O)c2ccccc2)o1)Nc1ccc2c(c1)OCCO2 | 14.8
85 | CC1C(c2cccs2)=[N+]([O-])C(C)(C(=O)c2ccc(Cl)cc2)N1O (centres unmarked) | 10.1
86 | C#CCOCCOCCOCCNc1nc(N2CCN(C(=O)[C@H]([C@@H](C)CC)n3cc(CCC[NH+]=C(N)N)nn3)CC2)nc(N2CCN(C(=O)[C@H](CCCC[NH3+])n3cc(CC(C)O)nn3)CC2)n1.[Cl-] (some centres unmarked) | 13.7

Reference: PMC4336329 (PLoS ONE, 2015)
